In PubChem BioAssay AID1671188 (National Center for Advancing Translational Sciences (NCATS), 2021):
About 250 (0.25%) of roughly 100,000 compounds were called active. The shares of active, inactive and inconclusive entries below differ from those in the screen. The call rests on the fitted dose curve; in most records, active means well fitted inhibition curve with a large enough effect; inconclusive means small, poorly fitted or top-dose-only effect; inactive means flat fitted curve, though single readings scatter. Potencies of inconclusive entries are left out as doubtful fits.

target: Alanine aminotransferase 2 (Homo sapiens) (UniProt Q8TD30); assay: Primary qHTS assay for inhibitors of Glutamate pyruvate transaminase 2 (GPT2); conditions: Recombinant GPT2, coupled pyruvate oxidase/HRP Amplex Red fluorescence; series mostly up to 57.7 µM; further: nearly all actives have a fitted effect of over 60% in size
Chain of UniProt Q8TD30 (Q8TD30 whole entry, looked up): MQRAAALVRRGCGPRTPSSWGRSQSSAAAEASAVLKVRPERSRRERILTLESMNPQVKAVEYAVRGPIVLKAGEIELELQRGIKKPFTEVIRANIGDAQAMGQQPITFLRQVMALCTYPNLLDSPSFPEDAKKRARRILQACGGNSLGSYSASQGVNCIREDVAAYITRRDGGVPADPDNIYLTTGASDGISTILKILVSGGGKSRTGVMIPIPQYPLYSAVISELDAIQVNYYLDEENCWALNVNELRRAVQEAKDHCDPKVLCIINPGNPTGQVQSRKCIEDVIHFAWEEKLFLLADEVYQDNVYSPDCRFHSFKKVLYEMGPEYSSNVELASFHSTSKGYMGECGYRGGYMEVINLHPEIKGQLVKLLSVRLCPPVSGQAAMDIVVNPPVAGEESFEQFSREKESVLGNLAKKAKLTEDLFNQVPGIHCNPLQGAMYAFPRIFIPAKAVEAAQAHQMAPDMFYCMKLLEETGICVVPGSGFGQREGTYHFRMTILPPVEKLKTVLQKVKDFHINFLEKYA
Method in brief: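 Fluorescence of coupled pyruvate oxidase/HRP/Amplex Red system (50uM Amplex, 30 min, dark) reports pyruvate formed by GPT2. Enzyme reaction: 10ng/uL GPT2, 2mM L-alanine, 250uM a-KG, 30 min room temperature, pH 7.5; 50uM AOA control.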
Potency means the concentration at half of the fitted maximal effect; tags describe the fitted curve by direction and shape.

SMILES | Potency
O=C(NC[C@H]1OC[C@@H](NCc2ccccc2F)[C@@H]1O)c1ccc(F)cc1 | inactive
COc1ccccc1-c1nccc2c(=O)cc(-c3ccccn3)oc12 | inconclusive [inhibitor, single point]
Fc1ccccc1Nc1nc(-c2ccccc2)no1 | inconclusive [inhibitor, single point]
c1cnc2c(-n3nc(C4CCOCC4)nc3C3CC3)cccc2c1 | inconclusive [inhibitor, single point]
CN1CCC(CNc2nccc(C3(c4ccccc4Cl)CCNCC3)n2)C1 (configuration not stated) | inactive
O=C(Cc1ccc(F)cc1)NC1CCN(Cc2cccc(-c3cccs3)c2)CC1 | inactive
CC(C)(C)C(=O)Nc1nc2c(s1)C[C@@H]1[C@](C)(CO)[C@H](O)CC[C@@]1(C)[C@@H]2CC(=O)Nc1cccc(O)c1 | inactive
CN(C)C(=O)N1CCC(c2nc(C3CCOC3)no2)CC1 (configuration not stated) | inconclusive [inhibitor, partial curve]
Cc1cc(C)c(CNC(=O)c2cc(-c3ccccc3)cc3c2OCCN3C(C)C)c(=O)[nH]1 | inactive
O=C(NC1CCCc2c1[nH]c1ccc(F)cc21)c1ccncc1 (configuration not stated) | inconclusive [inhibitor, full curve, poor fit]
COc1ccc(CN2C(=O)[C@@H]3C[C@@H](O)CN3C3(CN(Cc4ccc(NC(C)=O)cc4)C3)C2=O)cc1 | inconclusive [inhibitor, single point]
COc1ccc(-c2noc(CN3CCCC(C(=O)c4cccnc4)C3)n2)c(OC)c1OC (configuration not stated) | inconclusive [inhibitor, full curve, poor fit]
CN1CCN(C(=O)c2cc3cc(Cl)ccc3[nH]2)CC1 | inactive
CC(C)Cc1ccc(S(=O)(=O)N(C)CC2CCOC2)cc1 (configuration not stated) | inconclusive [inhibitor, single point]
CCc1cccc(NC(=O)Cn2c(-c3ccc(Cl)cc3)nc(C)c(CCO)c2=O)c1 | inconclusive [inhibitor, single point]
c1ccc(Nc2cc3c(cn2)CN(Cc2cccs2)CCN3)cc1 | inconclusive [inhibitor, full curve, poor fit]
Cc1ccc(N2CCC3(CCCN3Cc3ccc4nsnc4c3)CC2)nn1 | inactive
CC1=C[C@@H](CN(C)CCC#N)[C@H](C(C)C)C[C@H]1Cc1nnc(-c2ccc(C)cc2)o1 | inactive
O=C(CC[C@@H]1CNC(=O)[C@@H]2C[C@H](NC(=O)Nc3ccccc3)CN12)NCc1ccccc1 | inconclusive [inhibitor, single point]
C[S+](=O)([O-])CCn1ncc2cc(OCC3CCN(Cc4cccs4)CC3)ccc21 | inactive
O=C(c1ccc(F)cc1)N1CCC(c2nn(Cc3ccccc3)c(=O)[nH]2)CC1 | inconclusive [inhibitor, partial curve, poor fit]

SMILES | Potency
C=C(CO)C(=O)O[C@H]1C[C@@]23O[C@@H]2CC/C(=C/[C@H]2OC(=O)C(=C)[C@H]12)CO[C@H]3O | inconclusive [inhibitor, single point]
O=C(Nc1cccc2ccccc12)O[C@@H]1CO[C@H]2[C@@H]1OC[C@@H]2NC(=O)c1cccs1 | inconclusive [inhibitor, full curve, poor fit]
O=C1C(N2CCN(S(=O)(=O)c3cc(F)cc(F)c3)CC2)CCN1Cc1ccccn1 (configuration not stated) | inconclusive [inhibitor, single point]
COc1cccc(C(=O)Nc2ccc3c(c2)CN(Cc2ccc(F)cc2)C(=O)C(C)O3)c1 (configuration not stated) | inconclusive [inhibitor, single point]
Cc1ccc(-c2cc(N3CCCN(C(=O)Cc4ccccc4Cl)CC3)n[nH]2)cc1C | inconclusive [inhibitor, single point]
CCCc1noc(-c2ccn3c(CNC(=O)c4ccco4)nnc3c2)n1 | inactive
Cc1ccc(NC(=O)N2Cc3[nH]cnc3C[C@H]2c2nc(C(C)C)no2)cc1 | inactive
CN(Cc1ccnn1C)C1CCOc2ccccc21 (configuration not stated) | inconclusive [inhibitor, single point]
Cc1noc(C)c1[S+](=O)([O-])N1CCn2cc(C(=O)Nc3ccc(Cl)cc3Cl)nc2C1 | inconclusive [inhibitor, full curve, poor fit]
CC(C)=CCC/C(C)=C/CC/C(C)=C/CC[C@]1(C)CCc2cc(O)cc(C)c2O1 | inconclusive [inhibitor, full curve, poor fit]
O=C(c1cn2ccsc2n1)N1CCC2(CCNCC2)CC1 | inconclusive [inhibitor, single point]
COc1ccc(CC(=O)N[C@H]2C[C@@H](c3nc(-c4ccc(OC(F)(F)F)cc4)no3)N(C)C2)cc1 | inconclusive [inhibitor, single point]
COc1ccc(-c2cc(N3CCC(NC(=O)c4cc(C)ccc4C)C3)n[nH]2)cc1 (configuration not stated) | inactive
O=C(NC1CCCN(c2cc(-c3ccccc3)[nH]n2)C1)c1ccccc1 (configuration not stated) | inconclusive [inhibitor, partial curve, poor fit]
CC(=O)c1ccc(NC(=O)O[C@@H]2CO[C@H]3[C@@H]2OC[C@@H]3NC(=O)C2CC2)cc1 | inactive
O=C(C1CCCC1)N1CC2(CCN(CC3CC3)C2)Cc2ccccc21 (configuration not stated) | inconclusive [inhibitor, single point]
COc1ccc(S(=O)(=O)N2CC[C@@H](CC(=O)O)[C@@H](CC3=NCCc4cc(OC)c(OC)cc43)C2)cc1 | inconclusive [inhibitor, partial curve, poor fit]
O=C(Nc1ccc(-c2nnc3n2CCCC3)cc1)c1cc(-c2ccccc2)n[nH]1 | inactive
Fc1ccccc1OCC1CCCN(c2nccc(-c3cccnc3)n2)C1 (configuration not stated) | inconclusive [inhibitor, full curve, poor fit]
CN1CCC(Nc2ncc(C(C)(C)C(=O)O)c(N3CCOCC3)n2)CC1 | inconclusive [inhibitor, single point]
Cc1nn(-c2ccc(F)cc2)c(Oc2ccccc2)c1CCC(=O)NCC1CC1 | inconclusive [inhibitor, single point]

SMILES | Potency
CCN(Cc1ccncc1)C(=O)CC(c1ccccc1)c1ccc2c(c1)OCO2 (configuration not stated) | inconclusive [inhibitor, partial curve, poor fit]
O=C(C1CCN(c2nc(-c3ccccc3)nc3c2CCC3)CC1)N1CCC[C@H]1CO | inconclusive [inhibitor, single point]
COC(=O)C(CC1(O)c2ccccc2N2C(=O)C(C)(C)N(O)C21)n1cnc2ccccc2c1=O (configuration not stated) | inconclusive [inhibitor, single point]
CS(=O)(=O)CCN1CCN(C(=O)c2cccc(-c3ncc[nH]3)c2)CC1 | inconclusive [inhibitor, partial curve, poor fit]
COc1ccc(CNc2ncnc3c2CN(C2CCCNCC2)C(=O)CN3C)cc1OC (configuration not stated) | inconclusive [inhibitor, full curve]
O=C(CCNc1c(-c2ccccc2)nc2cnccn12)NC1CCCC1 | inconclusive [inhibitor, single point]
NCCc1ccc(O)c(O)c1 | inconclusive [inhibitor, full curve]
OC[C@@H]1CN(C2CCC2)C[C@H]1c1nc(-c2ccncc2)no1 | inactive
Cn1cc(-c2ccccc2Oc2ccccc2)c2nc(CN3CCNC(=O)C3)cn2c1=O | inconclusive [inhibitor, full curve, poor fit]
COCCN1CCN(C[C@@H]2C=C(C)[C@H](Cc3nnc(-c4cccnc4)o3)C[C@H]2C(C)C)CC1 | inconclusive [inhibitor, single point]
Cc1ccc([C@H]2C[C@@H](O)[C@@H](O)[C@@H]2NCc2ccccc2)cc1 | inconclusive [inhibitor, single point]
C[C@H](Cc1ccc(O)c(O)c1)[C@@H](C)Cc1ccc(O)c(O)c1 | inconclusive [inhibitor, partial curve, poor fit]
C=C1CC[C@@H](O)[C@]2(C)CC[C@H]3C(=C)C(=O)O[C@@H]3[C@@H]12 | inconclusive [inhibitor, partial curve, poor fit]
CCCN1C(=O)NC(Cc2nc(-c3cccnn3)no2)C1=O (configuration not stated) | inconclusive [inhibitor, full curve, poor fit]
CCN1CC2(CCN(C(=O)CC(N)c3ccc(OC)c(OC)c3)CC2)CC1=O (configuration not stated) | inconclusive [inhibitor, single point]
COCCn1c(C)nnc1-c1cc(-c2cccc(CO)c2)ccn1 | inconclusive [inhibitor, single point]
FC(F)(F)c1ccc(CN2CCNc3cc(Nc4cccnc4)ncc3C2)cc1 | inconclusive [inhibitor, single point]
O=C1NCc2ccccc2CC12CCCCN2CC1CCCC1 (configuration not stated) | inconclusive [inhibitor, partial curve, poor fit]
O=C1CCC2(CCCN(c3nc4ccccc4s3)C2)CN1Cc1cccnc1 (configuration not stated) | inconclusive [inhibitor, single point]
COC(=O)C[C@H]1C(C)(C)[C@H](OC(=O)C(C)C)[C@@]2(O)C(=O)[C@]1(C)C1CC[C@]3(C)C(CC(=O)O[C@H]3c3ccoc3)[C@]13O[C@@H]32 (some centres not stated) | inconclusive [inhibitor, partial curve, poor fit]
